Some of the results follow.

The assay has as its system HSkMC (human skeletal muscle cells). As to the kind of experiment: cytotoxicity call (relative viability < 0.9). As to conditions: 10 µM.
For `C[C@@H]1CN([C@@H](C)CO)C(=O)c2cc(C#CCN(C)C)cnc2O[C@@H]1CN(C)C(=O)c1ccc2c(c1)OCO2`, the cytotoxicity call is “inactive”.
Regarding `Cc1ccc(S(=O)(=O)Nc2cccc3c2O[C@@H](CN(C)Cc2ccc(C(F)(F)F)cc2)[C@H](C)CN([C@H](C)CO)C3=O)cc1`, the cytotoxicity call was “inactive”.
`C[C@@H]1CCCCO[C@@H](CN(C)S(C)(=O)=O)[C@@H](C)CN([C@H](C)CO)C(=O)c2cc(N(C)C)ccc2O1`: the cytotoxicity call is “inactive”.
On to `C[C@@H]1CN([C@@H](C)CO)C(=O)c2cccc(NC(=O)Nc3ccc(C(F)(F)F)cc3)c2O[C@@H]1CN(C)C(=O)Nc1ccc(F)cc1`, for which the cytotoxicity call was “inactive”.
The same measure for `C[C@H](CO)N1C[C@H](C)[C@@H](CN(C)C(=O)Nc2cccc3ccccc23)Oc2ccc(NC(=O)Nc3ccc(F)cc3)cc2CC1=O`: “inactive”; for `CCCCCCCCCCCCCCCCOc1nc2ccc(C)cc2c(=O)o1`: “inactive”.
Regarding `C[C@@H]1CN([C@@H](C)CO)C(=O)c2cccc(NC(=O)Nc3ccc(F)cc3)c2O[C@H]1CN(C)Cc1ccc(-c2ccccc2)cc1`, the cytotoxicity call is “active”.
For the compound `C[C@@H]1CN([C@H](C)CO)S(=O)(=O)c2ccc(C#CC(C)(C)O)cc2O[C@@H]1CN(C)Cc1ccc(F)cc1`, the cytotoxicity call is “inactive”.
For `O=C(O)CCSC[C@@H]1O[C@H]2O[C@@H]3[C@@H](O)[C@H](O)[C@H](O[C@@H]4[C@@H](O)[C@H](O)[C@H](O[C@@H]5[C@@H](O)[C@H](O)[C@H](O[C@@H]6[C@@H](O)[C@H](O)[C@H](O[C@@H]7[C@@H](O)[C@H](O)[C@H](O[C@@H]8[C@@H](O)[C@H](O)[C@H](O[C@@H]9[C@@H](O)[C@H](O)[C@H](O[C@@H]1[C@@H](O)[C@@H]2O)O[C@H]9CSCCC(=O)O)O[C@H]8CSCCC(=O)O)O[C@H]7CSCCC(=O)O)O[C@H]6CSCCC(=O)O)O[C@H]5CSCCC(=O)O)O[C@H]4CSCCC(=O)O)O[C@H]3CSCCC(=O)O`, the cytotoxicity call is “inactive”.
As to `C=CC[C@@H](CC(=O)N[C@@H](CO)Cc1ccccc1)C(=O)NCCOC(=O)[C@@H](CC=C)CC(=O)OC(C)(C)C`, the cytotoxicity call was “inactive”.
In the case of `CCCNC(=O)N1C[C@@H](O)COC[C@H]2O[C@@H](CC(=O)N3CCN(C)CC3)CC[C@@H]21`, the cytotoxicity call is “inactive”.
Take `Cc1ccc(OC(=O)N(C)C[C@@H]2OCc3ccccc3-c3ccccc3C(=O)N([C@H](C)CO)C[C@H]2C)cc1`: the cytotoxicity call was “inactive”.
The same measure for `C[C@@H]1CN([C@@H](C)CO)C(=O)c2cc(NS(=O)(=O)c3ccccc3)ccc2O[C@@H](C)CCCCO[C@H]1CN(C)C(=O)c1ccccc1`: “inactive”.
Consider `C[C@@H]1CN([C@H](C)CO)C(=O)c2cc(NC(=O)C3CC3)ccc2O[C@@H]1CN(C)S(=O)(=O)c1ccccc1`, for which the cytotoxicity call is “inactive”.
As for `C[C@@H]1CCCCO[C@H](CN(C)Cc2ccc3c(c2)OCO3)[C@@H](C)CN([C@@H](C)CO)C(=O)c2cc(NC(=O)c3ccccc3)ccc2O1`, the cytotoxicity call was “inactive”.
With `C[C@@H]1CN([C@@H](C)CO)C(=O)c2cc(NS(=O)(=O)c3ccccc3)ccc2O[C@@H]1CN(C)Cc1ccc(Cl)c(Cl)c1`, the cytotoxicity call is “active”.
Regarding `COCC#Cc1ccc2c(c1)O[C@@H](CN(C)S(C)(=O)=O)[C@@H](C)CN([C@H](C)CO)S2(=O)=O`, the cytotoxicity call is “inactive”.
The same measure for `C[C@@H]1CN([C@H](C)CO)C(=O)c2cc(NC(=O)Nc3ccc(C(F)(F)F)cc3)ccc2O[C@@H]1CN(C)Cc1ccc(C(F)(F)F)cc1`: “active”; for `C[C@H](CO)N1C[C@H](C)[C@H](CN(C)S(=O)(=O)c2ccc(Cl)cc2)OCCCC[C@H](C)Oc2ccc(NC(=O)NC3CCCCC3)cc2C1=O`: “inactive”; for `Cc1cc(Cl)cc2sc(N(Cc3ccccn3)C(=O)c3ccc(S(=O)(=O)N4CCCC4)cc3)nc12`: “inactive”.
The same measure for `C[C@@H]1CN([C@H](C)CO)C(=O)c2cccc(NC(=O)Nc3cccc4ccccc34)c2O[C@H]1CN(C)S(=O)(=O)c1ccc(F)cc1`: “inactive”; for `C[C@H]1CCCCO[C@H](CN(C)CC2CC2)[C@@H](C)CN([C@@H](C)CO)C(=O)c2cc(NC(=O)c3ccccc3)ccc2O1`: “inactive”.
Turning to `C[C@H](CO)N1C[C@H](C)[C@H](CN(C)C(=O)Nc2cccc3ccccc23)OCCCC[C@H](C)Oc2ccc(NC(=O)c3ccncc3)cc2C1=O`, the cytotoxicity call was “inactive”.
For the compound `C[C@H]1CCCCO[C@H](CN(C)Cc2ccc(C(F)(F)F)cc2)[C@@H](C)CN([C@@H](C)CO)C(=O)c2cc(NC(=O)C3CCCCC3)ccc2O1`, the cytotoxicity call is “inactive”.
For `C[C@@H]1CN([C@@H](C)CO)C(=O)Cc2cc(NC(=O)Cn3cnnn3)ccc2O[C@H]1CN(C)Cc1ccc(Cl)c(Cl)c1`, the cytotoxicity call was “inactive”.
As for `C[C@@H]1CN([C@H](C)CO)C(=O)CCCn2cc(nn2)CO[C@H]1CN(C)C(=O)CCCN(C)C`, the cytotoxicity call is “inactive”.
For the compound `COc1ccc(NC(=O)N(C)C[C@H]2Oc3c(NS(=O)(=O)c4cn(C)cn4)cccc3C(=O)N([C@H](C)CO)C[C@H]2C)cc1`, the cytotoxicity call was “inactive”.
For the compound `C[C@H](CO)N1C[C@H](C)[C@H](CN(C)S(C)(=O)=O)Oc2ncc(-c3cccc(C(F)(F)F)c3)cc2C1=O`, the cytotoxicity call is “inactive”.
The same measure for `CC(C)[C@H]1NC(=O)CNC1=O`: “inactive”; for `COCC(=O)N1CC[C@]2(CC1)CN([C@H](CO)c1[nH]c3cc(ccc3c12)OC)C(=O)Nc1ccccc1F`: “inactive”.
In the case of `CC(C)NC(=O)N(C)C[C@@H]1Oc2c(NS(=O)(=O)c3ccc(F)cc3)cccc2C(=O)N([C@H](C)CO)C[C@H]1C`, the cytotoxicity call is “inactive”.
As to `COc1cnc(-n2cnc(C)n2)c2c1c(C(=O)C(=O)N1CCN(C(=O)c3ccccc3)CC1)cn2COP(=O)(O)O`, the cytotoxicity call was “inactive”.
On to `COc1ccc2c3c(n(c2c1)C)[C@H](CO)N(Cc1ccccc1Cl)C[C@]13CCN(CC1)C(=O)CC1CC1`, for which the cytotoxicity call is “inactive”.
For `C[C@@H]1CCCCO[C@@H](CN(C)C(=O)c2ccccc2)[C@H](C)CN([C@H](C)CO)C(=O)c2cc(NS(=O)(=O)c3cccs3)ccc2O1`, the cytotoxicity call was “inactive”.
The same measure for `C[C@H](CO)N1C[C@H](C)[C@H](CN(C)C(=O)C2CC2)OCc2cn(nn2)CCCC1=O`: “inactive”; for `C[C@](N)(Cc1ccc(O)cc1)C(=O)O`: “inactive”.
Take `Cc1ccc(S(=O)(=O)Nc2ccc3c(c2)C(=O)N([C@H](C)CO)C[C@H](C)[C@H](CN(C)S(=O)(=O)c2ccc(F)cc2)OCCCC[C@@H](C)O3)cc1`: the cytotoxicity call is “inactive”.
The same measure for `Cc1noc(C)c1S(=O)(=O)Nc1ccc2c(c1)C(=O)N([C@H](C)CO)C[C@@H](C)[C@@H](CN(C)C(=O)Nc1ccc(F)cc1)OCCCC[C@@H](C)O2`: “inactive”; for `C[C@@H]1CN([C@H](C)CO)C(=O)c2cc(NS(=O)(=O)c3ccc(F)cc3)ccc2O[C@@H](C)CCCCO[C@@H]1CN(C)S(=O)(=O)c1cn(C)cn1`: “inactive”.
For the compound `CC(C(=O)O)c1ccc2c(c1)Cc1cccnc1O2` (stereo not given), the cytotoxicity call was “inactive”.

These data come from the antibiotic and cytotoxicity screens of Wong et al. (2023).
